Data as given in PubChem BioAssay AID1963576 (National Center for Advancing Translational Sciences (NCATS), 2024).
About 60 (0.1%) of roughly 46,000 compounds were called active. Not shown: some 3% with an inconclusive outcome. Calls follow the shape of the dose curve; as a rule, active = well fitted inhibition curve with a large enough effect; inconclusive = small, poorly fitted or top-dose-only effect; inactive = no such curve, though single readings can be large or run the other way. This is one part of the list.

Experiment: Primary qHTS assay for Inhibitors of ovarian cancer metastasis using an organotypic tumor microenvironment (TME) model. Also: nearly all actives have a fitted effect of over 65% in size.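 As to activity change, negative = inhibition: plate controls were DMSO wells for no effect and tomatine positive control wells for full effect.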
Conditions: SKOV3ip1-GFP adhesion/invasion on 3D omental model, fluorescence; series mostly up to 45.8 µM; activity change, negative = inhibition: at the top concentration
Procedure, shortened: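 Primary human omental fibroblast/mesothelial 3D culture pre-formed 48 h. SKOV3ip1-GFP cells added with compounds (0.36-46 umol/L), incubated 2 h RT/16 h 37 C, fixed; GFP cells quantified at 488/509 nm.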

Activity change, negative = inhibition, inactive:
Cc1cccc(C(=O)Nc2nc(-c3ccc(Br)cc3)ns2)c1 -11.6%
COc1cc(C(=O)N2CCc3c([nH]c4ccccc34)C2c2ccccc2)cc(OC)c1OC (stereo unspecified) -1.17%
CCOC(=O)C1CCC(CN(Cc2c(Cl)cccc2Cl)S(=O)(=O)c2ccc(F)cc2)CC1 (stereo unspecified) -9.97%
Cc1ccc(C)c(N2CCN(C(=O)c3cc(S(=O)(=O)N4CCCC4)cn3C)CC2)c1 1.43%
COc1ccccc1CCNC(=O)Cn1ccc2cc(S(=O)(=O)N3CCCCCC3)ccc21 2.54%
COc1cccc(-c2nn(C)c3sc(C(=O)N4CCN(c5cccc(C)c5)C(C)C4)cc23)c1 (stereo unspecified) -4.47%
CC(S)C(=O)NCC(=O)O (stereo unspecified) 24.1%
CSc1ncc(C(=O)N2CCN(c3ccc(F)cc3)CC2)c(C)n1 21%
CCn1cc(C(=O)NCc2ccccc2Cl)c(=O)c2cc(S(=O)(=O)N3CCCCC3)ccc21 2.02%
CCOc1ccc(N(CC)C(=O)CSc2n[nH]c(-c3ccccc3)n2)cc1 -12.8%
Cc1ncc(CO)c2c1Oc1nc(-c3ccccc3)nc(SCC(=O)Nc3cccc(C(F)(F)F)c3)c1C2 4.1%
CCCCn1c(-c2ccc(C)cc2)c(C)n2c3c(=O)n(C)c(=O)n(C)c3nc12 -8.86%
Cc1ccc(OCCCCn2c(CCNC(=O)C(C)(C)C)nc3ccccc32)cc1 2.39%
Cc1ccccc1-c1noc(CSc2nnc(-c3ccncc3)n2-c2ccc(F)cc2)n1 -0.492%
Cc1ccccc1NC(=O)CN1C(=O)CCn2nc(-c3cccn3C)cc21 1.97%
Cc1sc2c(c1C)c(=O)n(-c1cccc(C(F)(F)F)c1)c(=O)n2Cc1ccccc1C#N 7.48%
Cc1oc(-c2ccc(C(=O)NCc3ccccc3)cc2)nc1CS(=O)(=O)c1ccccc1 -11.4%
COc1ccc(-c2coc3c2c(C)cc2oc(=O)cc(C)c23)cc1 -15.2%
O=C(NC1CCCC1)c1ccc2c(c1)N(Cc1ccccc1F)C(=O)c1ccccc1S2 -5.14%
O=C(CSc1n[nH]c(-c2ccccc2Cl)n1)N1CCN(c2ccccc2F)CC1 -7.02%
COc1ccc(CCN2C(=O)N(c3ccc(F)cc3)C(=O)C2CC(=O)Nc2ccc(F)c(F)c2)cc1 (stereo unspecified) 4.08%
Cc1cccc(N2CCN(C(=O)c3oc(=O)c4ccccc4c3-c3ccccc3)CC2)c1C -12.4%
Cc1c(NC(=O)c2ccc(N3CCC(C)CC3)c([N+](=O)[O-])c2)cccc1-c1nc2ccccc2o1 0.555%
CC(C)[N+]1(C)[C@@H]2CC[C@H]1CC(OC(=O)C(CO)c1ccccc1)C2 (stereo partly specified) -5.24%
COCCCNC(=O)C1CCC(Cn2c(=O)c3sccc3n(Cc3ccc(F)cc3)c2=O)CC1 (stereo unspecified) 6.9%
COc1ccc(-c2noc(N3CCN(c4cccc(C)c4C)CC3)n2)cc1OC -12.6%
Cc1ccc(OCc2ccc(-c3nc(C#N)c(N4CCC(C)CC4)o3)o2)cc1 5.2%
CCc1cccc(C)c1NC(=O)C(C)Sc1nc2c(c(=O)[nH]1)CCCC2 (stereo unspecified) -7.73%
COc1ccc(CCNC(=O)CCc2c(C)nc3c(c(C)nn3-c3ccccc3)c2C)c(OC)c1 -5.32%
O=C(NCc1ccccc1)c1csc(Nc2ccncn2)n1 19.7%
COC(=O)c1c(C)sc(-c2c(-c3cccc(Cl)c3)[nH]c3c2c(=O)[nH]c(=O)n3C)c1O 11.7%
COc1ccc(C(=O)CN2C(=O)N(c3cc(C)ccc3C)S(=O)(=O)c3ccccc32)cc1 -5.65%
CCc1ccccc1NC(=O)C1CCN(C2=NS(=O)(=O)C(c3ccc(C)c(C)c3)=C2C)CC1 -25.7%
CCCNC(=O)CCC(=O)N1Cc2ccccc2Oc2ncccc21 -6.98%
CCOC(=O)c1c(C)oc2nc(C)nc(NC(C)c3ccccc3)c12 (stereo unspecified) 2.84%
Cc1nc2c3ccccc3nc(NNC(=O)CCC(=O)N3CCN(c4ccccc4)CC3)n2n1 2.92%
Cc1cccc(OCC(=O)Nc2ccc3c(c2)nc(CCNC(=O)c2ccco2)n3C)c1 -7.5%
CNC[C@H](O)c1ccc(O)c(O)c1 5.3% [at 92.2 µM]
COc1ccccc1CNC(=O)c1oc2ccc(S(=O)(=O)N3CCCCC3)cc2c1C -11.5%
COc1ccc(NC(=O)c2cc3nc(-c4ccc(C)c(C)c4)cc(C(F)(F)F)n3n2)cc1 -3.12%
CCc1ccccc1NC(=O)c1ccc2c(O)c(S(=O)(=O)c3ccccc3)c(=O)[nH]c2c1 0.656%
COc1ccc(OCC(=O)OCc2cc(=O)n3cc(C)sc3n2)cc1 4.25%
CCOCCCN1C(=O)CN(C2CCCCCC2)C(=O)C1c1ccc(OC(C)C)c(OC)c1 (stereo unspecified) -6.52%
COC(=O)[C@H](CCCN=C(N)N)NS(=O)(=O)c1ccc(C)cc1 -4.29%
COc1ccc(NC(=O)CSc2nc(-c3ccc(OC)cc3)[nH]c2-c2ccc(OC)cc2)cc1 -2.3%
Cc1ccc(N(CC(=O)NCc2ccc(Cl)cc2)S(=O)(=O)N(C)C)cc1 8.72%
Cc1ccc(CSc2ncc(Cl)c(C(=O)NCCc3ccc(S(N)(=O)=O)cc3)n2)cc1 -7.52%
COC(=O)c1ccc(Nc2nnc(-c3ccc(C)c(S(=O)(=O)N4CCN(C)CC4)c3)c3ccccc23)cc1 -10.4%
Cc1cccc(CN2C(=O)c3ccccc3S(=O)(=O)c3ccc(C(=O)NCCC4=CCCCC4)cc32)c1 -3.89%
Cc1ccc(C(=O)Nc2cccc(-c3nc4cccnc4s3)c2C)cc1 10.1%
COc1ccc(-c2cc(OC(=O)c3ccc(Cl)cc3)c3c(C)oc(C)c3c(=O)c2)cc1 8.27%
O=C(CC1C(=O)N(c2ccccc2)C(=O)N1CCC1=CCCCC1)Nc1ccc(F)cc1 (stereo unspecified) 4.39%
CCCN1CCN(CCNC(=O)Nc2ccc(OC)cc2OC)CC1 12.3%
CC(=O)N1CCN(c2csc3ccc(F)cc3c2=O)CC1 2.45%
CCOc1ccc(NC(=O)N2CCN(S(=O)(=O)c3ccc4c(ccn4C)c3)CC2)cc1 -8.01%
Cc1ccccc1NC(=O)CSc1nc(-c2ccccc2C)nc2cc(=O)[nH]n12 10.5%
Cc1ccc(NC(=O)Cc2ccc(-n3c(C)nc4cccnc43)cc2)cc1C 9.29%
Cc1cc(C)c(NC(=O)C(C)n2nc(-c3ccc(C)c(C)c3)ccc2=O)c(C)c1 (stereo unspecified) -16.6%
COc1ccc(-c2cc(C(C)=O)c(C)n2CCC(=O)NCc2ccccc2OC)cc1 18.5%
CCc1ccccc1N(C)C(=O)Cc1c(C(=O)O)c(C)cn1C -4.43%
Brc1cccc(CNCCSc2nnnn2-c2ccccc2)c1 4.79%
Cc1nn(-c2ccccc2)c(OC(=O)C(C)C)c1Sc1ccccc1 -1.66%
COc1ccc(Cn2c(SCc3ccc(C(=O)NC4CCCC4)cc3)nc3ccncc32)cc1 31.6%
CCOC(=O)c1c(C)oc2ncnc(N3CCN(c4ccccc4OC)CC3)c12 -2.87%
CNC(=O)c1cc(Oc2ccc(NC(=O)Nc3ccc(Cl)c(C(F)(F)F)c3)c(F)c2)ccn1 -25.9%
COc1cccc(CNC(=O)CCc2cn(Cc3ccccc3Cl)c3ccccc23)c1 4.59%
CCCCOc1ccc(S(=O)(=O)Nc2ccc(-c3ccc(N4CCCCCC4)nn3)cc2)cc1 5.34%
COC(=O)c1cccc(-n2c(CCC(=O)O)ccc2-c2ccc(OC)cc2)c1 -5.11%
COc1ccc(CCNC(=O)C2(c3cccs3)CCOCC2)cc1OC 2.19%
CCCOc1cccc(C(=O)Nc2cccc(NC(=O)c3ccc(C(C)(C)C)cc3)c2)c1 -12.8%
COc1ccc2[nH]c(C)c(CCNS(=O)(=O)c3cc(F)ccc3OC)c2c1 7.43%
CN(C)c1ccc(C(CNC(=O)c2ccc(C(C)(C)C)cc2)N2CCOCC2)cc1 (stereo unspecified) -6.09%
COc1cc(OC)cc(C(=O)Nc2ccccc2-c2nc3ccccc3s2)c1 21.2%

outcome, inactive:
CCc1nnc(SCc2nc(-c3ccc(OC)cc3)oc2C)c2cc3sccc3n12
CC1=C(C(=O)Nc2cccnc2)C(c2ccccc2)n2nc(SCc3ccccc3F)nc2N1 (stereo unspecified)
O=C(Cc1ccccc1)Nc1cccc(-c2nc3cccnc3s2)c1
CCOc1ccc(N(CC(=O)NCc2ccc(Cl)cc2)S(=O)(=O)c2c(C)noc2C)cc1
Cc1ccc(C(=O)Nc2ccc(OCc3cc(=O)n4c5c(sc4n3)CCCC5)cc2)cc1
Cc1cc(NC(=O)Nc2csc3c2CCCC3)ccc1Br
Cc1cc(C)cc(NC(=O)c2sc3nc(-c4cc5ccccc5oc4=O)[nH]c(=O)c3c2C)c1
CC1=C(C(=O)OCc2ccc(C)cc2)C(c2ccccc2Cl)CC(=O)N1 (stereo unspecified)
COc1ccc(-c2nc3ccccc3s2)cc1NC(=O)COc1ccc(C)cc1
CCOc1ccc(NC(=O)CSc2nccn2Cc2ccco2)cc1
CCC1CCCCN1S(=O)(=O)c1ccc(C(=O)Nc2sc3c(c2C(=O)NC)CCC3)cc1 (stereo unspecified)
CCOC(=O)C1CCN(C(=O)CCS(=O)(=O)c2cc3c(cc2Cl)NC(=O)CO3)CC1
CCc1ccc(C(=O)c2cn(CC(=O)Nc3ccc(F)cc3)c3ccc(OC)cc3c2=O)cc1
COc1ccccc1N(CC(=O)NCCSCc1ccccc1)S(=O)(=O)c1ccc(C)cc1
COCCNC(=O)Cn1nc(N2CCN(c3ccccc3OC)CC2)ccc1=O
Cc1cc(C)cc(OCC(=O)NCCc2nc3ccccc3[nH]2)c1
O=C(COc1ccc2oc3c(c2c1)CCCC3)Nc1ccc(Br)cc1
CCOC(=O)c1cc(-c2ccccc2)n(CCCC(=O)Nc2ccc(C(C)C)cc2)c1C
Cc1ccc(Cl)cc1NC(=O)C(C)n1nnc2sc(-c3ccccc3)cc2c1=O (stereo unspecified)
CCCCC(=O)Nc1ccccc1C(=O)OCc1cc(=O)n2nc(C3CCCCC3)sc2n1
COc1cc(-c2ccno2)ccc1S(=O)(=O)N1CCN(c2ccc(C(C)=O)cc2)CC1
COc1ccc(-c2cc(C(F)(F)F)n3nc(C(=O)Nc4cc(Cl)cc(Cl)c4)cc3n2)cc1
Cc1coc2cc3oc(=O)c(CCC(=O)NCc4ccc(Cl)cc4)c(C)c3cc12
